These results are taken from PubChem BioAssay AID1963847 (Molecular Pharmacology Branch, DTP, NCI, 2024).

In the assay the test system is 415267-285-R-J2-PDC complex spheroid viability. Kind of assay: Anticancer human tumor 415267-285-R-J2-PDC patient-derived breast carcinoma cell line growth inhibition [POLQ]. To be noted: stronger effect = lower value. How it is done: Multicellular complex tumor spheroid response to Polymerase (POL) inhibitors (novobiocin, ART-558, RP6685) in combination with a variety of drugs and investigational agents in selected tumor cell lines
The POL inhibitors (novobiocin, ART-558, and RP6685) were evaluated both individually and in combination with standard of care and investigational anticancer small molecules within a complex spheroid model of solid tumors. . Complex spheroids include a stromal component modeled by human endothelial cells (HUVEC) and fibroblasts modeled by human mesenchymal stem cells (MSCs). The concentration ranges selected for each drug and investigational agent were based upon clinically achievable concentrations if the clinical Cmax of the agent was known.
Compounds. The drugs and investigational agents: novobiocin (NSC847541), ART-558 (NSC835418), RP-6685 (NSC848927), peposertib (NSC802822), ceralasertib (NSC780249), elimusertib (NSC800525), camonsertib (NSC841442), AZD-1390 (NSC803789), olaparib (NSC753686), talazoparib (NSC767125), rucaparib (NSC756644), sotorasib (NSC818433), MRTX-1133 (NSC836407), SN-38 (NSC673596), topotecan (NSC609699), epotoside (NSC141540), doxorubicin (NSC123127), gemcitabine (NSC613327), 5-fluorouracil (NSC19893), paclitaxel (NSC125973), vemurafenib (NSC761431), MSA-2 (NSC828583), SN-011 (NSC837082), adavosertib (NSC754352), prexasertib (NSC758257), carboplatin (NSC241240) and oxaliplatin (NSC266046), were obtained from the National Cancer Institute (NCI) Developmental Therapeutics Program Chemical Repository (21). The FDA-approved anticancer drug set is available from the Developmental Therapeutics Program at https://dtp.cancer.gov/organization/dscb/obtaining/. […] If the clinical Cmax for an agent had not been determined, the highest concentration tested was 10 microM, except for SN-38, which was tested at a high concentration of 1 microM. […]

Structures are written as SMILES. Not every entry of the source has a single result; some have several. They are shown here; other results are not. There may be further records. Values given together are repeats (runs, samples, wells, individuals or studies).
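Note: luminescence used as stand-in measure of viable cells; spheroids exposed to compounds for one week before readout; 100% = DMSO vehicle control viability.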

In the case of `COC1C(OC(N)=O)C(O)C(Oc2ccc3c(O)c(NC(=O)c4ccc(O)c(CC=C(C)C)c4)c(=O)oc3c2C)OC1(C)C` (stereo not drawn), the viability, T/C (compound alone 1 µM) is 99.7, 96.1, 95.4, 117, 98.1, 103, 91.9, 107, 95.8, 111, 91.5, 97.2, 109%.
`Nc1ccn(C2OC(CO)C(O)C2(F)F)c(=O)n1` (stereo not drawn): the viability, T/C (compound alone 0.0316 µM) is 6.23%, 7.91%, 34.5%.
As to `COc1cccc(OCCCN)c1-c1cc(Nc2cnc(C#N)cn2)n[nH]1`, under “compound alone 0.01 µM”, the viability, T/C was 8.47%, 35.3%, 30.7%.

For orientation: viability, T/C means the ratio of treated to control.
